From the supplement of paper PMC8728848
The list shows a part of the results.

Columns and labels:
Assay in all cases: glycan array binding signal (z-score within array); higher = stronger binding
Conditions in all cases: glycan notation: IUPAC condensed, linker removed
[1] = molecular target: Gal(b1-4)GlcNAc(b1-2)Man(a1-3)[Gal(b1-4)GlcNAc(b1-2)Man(a1-6)]Man(b1-4)GlcNAc(b1-4)[Fuc(a1-6)]GlcNAc
Method in brief: (§1)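 Glycan array data were curated from 3228 arrays in the Consortium for Functional Glycomics database and kept only where the protein sequence was available. Glycan names were converted to IUPAC-condensed notation, and columns mapping to the same glycan were averaged. The binding signal is a within-array Z-score, averaged across arrays of the same protein sequence at different concentrations or buffers and across linkers. Negative Z-scores can be read as non-binding.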

[2] = molecular target: Gal(b1-4)GlcNAc(b1-2)Man(a1-3)[Gal(b1-4)GlcNAc(b1-2)Man(a1-6)][Gal(b1-4)GlcNAc(b1-4)]Man(b1-4)GlcNAc(b1-4)[Fuc(a1-6)]GlcNAc
Method in brief: as §1

[3] = molecular target: Gal(b1-4)GlcNAc(b1-2)Man(a1-3)[Gal(b1-4)GlcNAc(b1-2)Man(a1-6)][GlcNAc(b1-4)]Man(b1-4)GlcNAc(b1-4)[Fuc(a1-6)]GlcNAc
Method in brief: as §1

[4] = molecular target: Gal(b1-4)GlcNAc(b1-2)Man(a1-3)[GlcNAc(b1-2)Man(a1-6)]Man(b1-4)GlcNAc(b1-4)GlcNAc
Method in brief: as §1

[5] = molecular target: Gal(b1-4)GlcNAc(b1-2)Man(a1-3)[GlcNAc(b1-4)][Gal(b1-4)GlcNAc(b1-2)Man(a1-6)]Man(b1-4)GlcNAc(b1-4)GlcNAc
Method in brief: as §1

[6] = molecular target: Gal(b1-4)GlcNAc(b1-2)Man(a1-3)[Man(a1-6)]Man(b1-4)GlcNAc(b1-4)GlcNAc
Method in brief: as §1

[7] = molecular target: Gal(b1-4)GlcNAc(b1-2)Man(a1-6)Man(b1-4)GlcNAc(b1-4)GlcNAc
Method in brief: as §1

[8] = molecular target: Gal(b1-4)GlcNAc(b1-2)Man(a1-6)[GlcNAc(b1-2)Man(a1-3)]Man(b1-4)GlcNAc(b1-4)GlcNAc
Method in brief: as §1

[9] = molecular target: Gal(b1-4)GlcNAc(b1-2)Man(a1-6)[Man(a1-3)]Man(b1-4)GlcNAc(b1-4)GlcNAc
Method in brief: as §1

[10] = molecular target: Gal(b1-4)GlcNAc(b1-2)[Gal(b1-4)GlcNAc(b1-4)]Man(a1-3)[Gal(b1-4)GlcNAc(b1-2)Man(a1-6)]Man(b1-4)GlcNAc(b1-4)GlcNAc
Method in brief: as §1

[11] = molecular target: Gal(b1-4)GlcNAc(b1-2)[Gal(b1-4)GlcNAc(b1-4)]Man(a1-3)[Gal(b1-4)GlcNAc(b1-2)[Gal(b1-4)GlcNAc(b1-6)]Man(a1-6)]Man(b1-4)GlcNAc(b1-4)GlcNAc
Method in brief: as §1

[12] = molecular target: Gal(b1-4)GlcNAc(b1-2)[Gal(b1-4)GlcNAc(b1-4)]Man(a1-3)[GlcNAc(b1-4)][Gal(b1-4)GlcNAc(b1-2)Man(a1-6)]Man(b1-4)GlcNAc(b1-4)GlcNAc
Method in brief: as §1

[13] = molecular target: Gal(b1-4)GlcNAc(b1-2)[Gal(b1-4)GlcNAc(b1-4)]Man(a1-3)[GlcNAc(b1-4)][Gal(b1-4)GlcNAc(b1-2)[Gal(b1-4)GlcNAc(b1-6)]Man(a1-6)]Man(b1-4)GlcNAc(b1-4)GlcNAc
Method in brief: as §1

[14] = molecular target: Gal(b1-4)GlcNAc(b1-2)[Gal(b1-4)GlcNAc(b1-6)]Man(a1-6)[Gal(b1-4)GlcNAc(b1-2)Man(a1-3)]Man(b1-4)GlcNAc(b1-4)GlcNAc
Method in brief: as §1

[15] = molecular target: Gal(b1-4)GlcNAc(b1-2)[Gal(b1-4)GlcNAc(b1-6)]Man(a1-6)[Gal(b1-4)GlcNAc(b1-2)Man(a1-3)]Man(b1-4)GlcNAc(b1-4)[Fuc(a1-6)]GlcNAc
Method in brief: as §1

[16] = molecular target: Gal(b1-4)GlcNAc(b1-2)[Gal(b1-4)GlcNAc(b1-6)]Man(a1-6)[GlcNAc(b1-4)][Gal(b1-4)GlcNAc(b1-2)Man(a1-3)]Man(b1-4)GlcNAc(b1-4)GlcNAc
Method in brief: as §1

[17] = molecular target: Gal(b1-4)GlcNAc(b1-2)[Gal(b1-4)GlcNAc(b1-6)]Man(a1-6)[GlcNAc(b1-4)][Gal(b1-4)GlcNAc(b1-2)[Gal(b1-4)GlcNAc(b1-4)]Man(a1-3)]Man(b1-4)GlcNAc(b1-4)[Fuc(a1-6)]GlcNAc
Method in brief: as §1

[18] = molecular target: Gal(b1-4)GlcNAc(b1-3)Gal(b1-3)GalNAc
Method in brief: as §1

[19] = molecular target: Gal(b1-4)GlcNAc(b1-3)Gal(b1-3)GlcNAc
Method in brief: as §1

B1: GSL-I-B4 (Griffonia simplicifolia) (protein)
chain: NFWSDVEDSIIFQGDANTTAGTLQLCKTNQYGTPLQWSAGRALYSDPVQLWDNKTESVASFYTEFTFFLKITGNGPADGLAFFLAPPDSDVKDAGEYLGLFNKSTATQPSKNQVVAVEFDTWTNPNFPEPSYRHIGINVNSIVSVATKRWEDSDIFSGKIATARISYDGSAEILTVVLSYPDGSDYILSHSVDMRQNLPESVRVGISASTGNNQFLTVYILSWRFSSNLQSTSVKAAMEPEITRTVV
- glycan array binding signal (z-score) [1]: -0.129
- glycan array binding signal (z-score) [2]: -0.172
- glycan array binding signal (z-score) [3]: -0.134
- glycan array binding signal (z-score) [4]: -0.21
- glycan array binding signal (z-score) [5]: -0.15
- glycan array binding signal (z-score) [6]: -0.116
- glycan array binding signal (z-score) [7]: -0.205
- glycan array binding signal (z-score) [8]: -0.159
- glycan array binding signal (z-score) [9]: -0.163
- glycan array binding signal (z-score) [10]: -0.138
- glycan array binding signal (z-score) [11]: -0.142
- glycan array binding signal (z-score) [12]: -0.197
- glycan array binding signal (z-score) [13]: -0.191
- glycan array binding signal (z-score) [14]: -0.223
- glycan array binding signal (z-score) [15]: -0.226
- glycan array binding signal (z-score) [16]: -0.147
- glycan array binding signal (z-score) [17]: -0.169
- glycan array binding signal (z-score) [18]: -0.107
- glycan array binding signal (z-score) [19]: -0.171
